# Measured values as given in PubChem BioAssay AID1347073 (National Center for Advancing Translational Sciences (NCATS), 2019).
# Screen size: about 45,000 compounds; about 200 (0.44%) were called active. Roughly 7% stayed inconclusive and do not appear here. The call rests on the fitted dose curve; in most records, active means well fitted activation curve with a large enough effect; inconclusive means small, poorly fitted or top-dose-only effect; inactive means no such curve, though single readings can be large or run the other way. The list shows a part of the results.
# Assay: qHTS of TDP-43 Inhibitors: NCGC Sytravon Library Screen; further: 0% is about no effect; nearly all actives have a fitted effect of over 55% in size
# Settings: yeast TDP-43 toxicity rescue, BacTiter-Glo growth, 24 h; series mostly up to 46.1 µM; growth rescue (activation): at the top concentration
# Method in brief: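 TDP-43-expressing yeast, pregrown in raffinose, seeded at OD600 0.02 in galactose medium with compound for 24 hr at 30 deg C. Growth read by BacTiter-Glo luminescence, so rescue of toxicity appears as activation.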
SMILES,growth rescue (activation),Potency
N#Cc1cc(C#N)c(SCC(=O)NCC2CCCO2)nc1N (stereo not drawn),inactive: 17.2%,
Clc1ccc(C2CSc3c4ncnc-4ncn32)cc1 (stereo not drawn),inactive: 0.619%,
COc1ccccc1N1CCN(CC(=O)Nc2c(C)n[nH]c2C)CC1,inactive: 11%,
CCC(C)NC(=O)c1ccc2c(c1)N(Cc1ccccc1)C(=O)c1ccccc1S2(=O)=O (stereo not drawn),inactive: 15.2%,
COc1cc(/C=N/Nc2ccc(Cl)cc2)ccc1OC(=O)c1cccs1,inactive: 17.8%,
O=C(O)c1ccc2c(c1)C(=O)/C(=C/c1ccccc1)C2=O,inactive: 14.1%,
COc1ccc(-c2cc(NC(C)=O)c3ncc(-c4ccc(F)cc4)n3c2)cc1OC,inactive: 1.37%,
COc1ccc(/C=C(\NC(=O)c2ccc(Cl)cc2)C(=O)NCCCN2CCOCC2)cc1OC,inactive: -6.84%,
Cc1ccc(S(=O)(=O)/N=C(\c2ccccc2)N(C)S(=O)(=O)c2ccc(C)cc2)cc1,inactive: 13.7%,
Cc1ccc(S(=O)(=O)c2nc(-c3ccccc3Cl)oc2N2CCN(C)CC2)cc1,inactive: 14%,
Cc1cccnc1NC(=O)CCNS(=O)(=O)c1ccc2c(c1)c(=O)n(C)c(=O)n2C,inactive: -3.29%,
O=C(CSc1nc2ccccc2c(=O)[nH]1)N1CCN(c2ccccc2F)CC1,inactive: -3.19%,
CN(C(=O)CCNC(=O)Cn1cnc2ccccc2c1=O)c1ccccc1F,inactive: -0.115%,
O=C(Nc1nnc(-c2ccccc2F)s1)Nc1ccccc1F,inactive: -6.36%,
O=C(OC(C(=O)Nc1ccc(Cl)c(C(F)(F)F)c1)c1ccccc1)C1=COCCO1 (stereo not drawn),inactive: 13.4%,
Cc1cc(N2CCOCC2)nc2ccc(NC(=S)N3CCCCC3C)cc12 (stereo not drawn),inactive: 3.27%,
COc1ccc(N(CC(=O)NCc2ccncc2)S(=O)(=O)c2ccccc2[N+](=O)[O-])c(OC)c1,inactive: 8.9%,
N=C1CCCN1CC(=O)c1ccc(Br)cc1,inactive: 10.5%,
COc1ccc(CN(Cc2ccccn2)S(=O)(=O)c2ccc(-n3cnnn3)cc2)cc1,inactive: 32.4%,
CCCCN(C)CCNC(=O)c1cn(C)c(=O)c2c1c1ccccc1n2C,inactive: -7.75%,
CCOCCOC(=O)C(C)Sc1n[nH]c(=O)[nH]c1=O (stereo not drawn),inactive: -33.8%,
Cc1cccc(NCc2ccc(N(C)C)cc2)n1,inactive: -2.96%,

SMILES,growth rescue (activation),Potency
O=C(CCCN1C(=O)/C(=C/c2cccs2)SC1=S)Nc1cccc(O)c1,inactive: 0.938%,
Cc1ccc(-n2c(C)cc(C(=O)COC(=O)c3ccc[nH]c3=O)c2C)cc1C,inactive: -74.6%,
COC(=O)c1ccc(N2NC(=O)/C(=C/c3cc(OC)c(O)c(OC)c3)C2=O)cc1,inactive: -16.6%,
CCn1c(CC(=O)Nc2ccc(Cl)c(Cl)c2)nnc1SCc1ccc(Cl)cc1,inactive: 2.4%,
COc1cccc(/C=C/C(=O)Nc2ccc(N3CCOCC3)cc2)c1OC,inactive: 5.25%,
CN(C)S(=O)(=O)N1CCC(Oc2cccc(C(=O)NCCC3=CCCCC3)c2)CC1,inactive: -10.2%,
CCNC(=S)Nc1ccc2ncoc2c1,inactive: 4.98%,
N=c1c(C(=O)NCCN2CCOCC2)cc2c(=O)n3ccccc3nc2n1CCc1ccccc1,inactive: 1.76%,
CCCCc1ncc(CN2CCC(CC3CCCCO3)(C(=O)OCC)CC2)[nH]1 (stereo not drawn),inactive: 9.07%,
NNc1nnc2c3cc(F)ccc3n(CCc3ccccc3)c2n1,inactive: 32.6%,
COc1cc(CN2CCC(C(=O)NC(c3ccc(F)cc3)c3ncccc3C)CC2)cc(OC)c1 (stereo not drawn),inactive: 4.32%,
C1CCN(c2c3c(nc4nnnn24)CCCC3)CC1,inactive: -6.57%,
CC(C)(C)NC(=O)c1ccc(Cn2cc(C(F)(F)F)ccc2=O)cc1,inactive: -6.66%,
CCOC(=O)CN(C(=O)COc1ccc2c(C)cc(=O)oc2c1)c1ccc(OCC)cc1,inactive: 1.26%,
O=S(=O)(NCCn1cccc1)c1ccc2ccccc2c1,inactive: 14.6%,
Cc1cccc(OC(C)C(=O)Nc2ccccc2C(=O)N2CCCCC2)c1 (stereo not drawn),inactive: -2.29%,
CCOc1ccc(S(=O)(=O)N=C(c2ccccc2)N2CCOCC2)cc1,inactive: -0.534%,
Cc1ccc(NNC(=S)Nc2ccc(C(C)C)cc2)c(C)c1,inactive: 10%,
O=C(Cc1ccccc1)NN1CCCCC1,inactive: 12.5%,
Cc1cc(N2CCCC2)nc2ccccc12,inactive: -0.538%,
OCC1(Cc2cccc(F)c2)CCN(Cc2ccc3cccc(F)c3n2)CC1,inactive: -0.705%,
O=c1c2cc(Cl)ccc2oc2nc3n(c(=O)c12)CCCS3,inactive: -23%,

SMILES,growth rescue (activation),Potency
Cc1cccc(Cn2nc(C)cc2NC(=O)Cn2cc([N+](=O)[O-])cn2)c1,inactive: 17.5%,
Cc1nc(C(C)NC(=O)CCc2nnc(Cc3c[nH]c4ccccc34)o2)cs1 (stereo not drawn),inactive: 12.5%,
CCC(C)N1CCNCC1 (stereo not drawn),inactive: -15.7%,
CCc1ccccc1NC(=O)CN(C)C(=O)Cn1cc(C(F)(F)F)cc(Cl)c1=O,inactive: 0.44%,
COc1ccc(N=CC2=C(O)CC(c3ccccc3)CC2=O)c(OC)c1 (stereo not drawn),inactive: -10.7%,
CN(CCO)c1cc(N(C)CCO)c([N+](=O)[O-])cc1[N+](=O)[O-],inactive: -23.9%,
COc1cc(CN2CCNC(=O)C2CC(=O)NCCc2ncccc2C)cc(OC)c1 (stereo not drawn),inactive: -11%,
Cc1cc(C)cc(CN2C(=O)NC3(CCCCCC3)C2=O)c1,inactive: 21.7%,
COc1cccc(/C=C(/C(=O)OCC(=O)NCC2CCCO2)c2ccccc2)c1 (stereo not drawn),inactive: 9.79%,
N#Cc1ccc(NC(=O)Cn2cnc([N+](=O)[O-])c2)cc1,inactive: 2.74%,
Cc1[nH]c2ccccc2c1N=Nc1cc(C(=O)O)cc(C(=O)O)c1,inactive: -7.73%,
CCn1c(SCc2nc3ccccc3c(=O)[nH]2)nnc1C(C)NC(=O)c1ccccc1 (stereo not drawn),inactive: 8.16%,
CC1(C)C2([N+](=O)[O-])CN3CC1([N+](=O)[O-])CN(C2)C3C(O)C(O)C(O)CO (stereo not drawn),inactive: 2.48%,
Cc1cc(/C=C(\C#N)C(=O)O)c(C)n1C1CC1,inactive: -3.51%,
CCOC(=O)c1c(NC(=O)CNC2CCCCC2)sc(C)c1C,inactive: -12.6%,
O=C(COC(=O)CCC(=O)c1ccc(F)cc1)NC1CCCCC1,inactive: -1.7%,
O=C(CSc1nnc(NC(=O)c2c(F)cccc2F)s1)Nc1ccc(F)cc1,inactive: 19.1%,
O=c1cc(O)c2ccccc2[nH]1,inactive: -10.4%,
CC(C)(C)NC(=O)C(c1c[nH]c2ccccc12)N(C(=O)Cn1nnc(-c2ccc(Cl)cc2)n1)c1ccccc1F (stereo not drawn),inactive: -7.04%,
O=C(Nc1ccc(F)c(F)c1)C1CCCN(S(=O)(=O)c2cccc3nonc23)C1 (stereo not drawn),inactive: 0.873%,
COc1cc(/C=C/C(=O)OCC(=O)NCCN2C(=O)CSC2=O)ccc1OC(F)F,inactive: -8.44%,
CCN(CC)CCCCN1c2ccccc2Sc2ccccc21,inactive: 6.21%,

SMILES,growth rescue (activation),Potency
CN(C)S(=O)(=O)c1ccc(C(=O)OC2CCOC2=O)cc1 (stereo not drawn),inactive: 3.15%,
COC(=O)c1ccc(NC(=O)CSc2ccccc2)cc1,inactive: 24.3%,
Cc1nc2ccccn2c1-c1csc(Nc2cccc(C(=O)O)c2)n1,inactive: 5.79%,
CC(Nc1ncnc2ccccc12)c1ccccc1 (stereo not drawn),inactive: 3.72%,
CCOP(=O)(OCC)C(NC(=O)Nc1ccccc1)C(N)=O (stereo not drawn),inactive: 8.8%,
Cn1cnc([N+](=O)[O-])c1SCC(O)CCl (stereo not drawn),inactive: 12.1%,
COc1ccccc1C(=O)NC(=S)Nc1cc(C(=O)O)ccc1C,inactive: -1.61%,
COC(=O)c1ccc(CNC(=O)C(C)N=C2NS(=O)(=O)c3ccccc32)cc1 (stereo not drawn),inactive: 8.52%,
COc1ccc(NC(=O)CSc2nc(N)c3cc4c(nc3n2)CC(C)(C)OC4)cc1,inactive: -24%,
CCC/C(=N\NC(=O)c1ccc(CSc2nncn2C)cc1)c1ccccc1,inactive: -1.94%,
Cn1c(SCC(=O)N/N=C/c2cc([N+](=O)[O-])ccc2O)nnc1-c1ccccc1,inactive: 26.5%,
CC(=O)Oc1ccc(C(=O)Nc2ccccc2C(=O)N2CCCCC2)cc1,inactive: 11.8%,
Cc1cc(=O)n2nc(N3CCCC3C(=O)NCCCN3CC(C)CC(C)C3)sc2n1 (stereo not drawn),inactive: -8.43%,
CC1=C(C(=O)OCc2ccc(C)cc2)C(c2ccc(O)c([N+](=O)[O-])c2)NC(=O)N1 (stereo not drawn),inactive: 0.763%,
O=S(=O)(c1ccc(Cl)cc1)N1CCN(Cc2cccnc2)CC1,inactive: 3.79%,
Cc1ccc(N2C(=O)N(CC(=O)Nc3ccccc3C(F)(F)F)C(=O)C2C)cc1 (stereo not drawn),inactive: 25.2%,
CSc1ccc(/C=N/NC(=O)c2cccs2)cc1,inactive: 4.31%,
NC(=S)N/N=C1\CC(c2ccc3c(c2)OCCCO3)Oc2ccc(F)cc21 (stereo not drawn),inactive: 8.52%,
O=C(c1ccc(-c2cccc(C(F)(F)F)c2)o1)N1CCN(c2ccccc2)CC1,inactive: 21%,
COCCN1C=C(C(=O)OC)C(c2ccccc2C(F)(F)F)C(C(=O)OC)=C1,inactive: 44.5%,
CCN1CCN(c2cc(C)c3cc(NC(=S)N4CCCC4)ccc3n2)CC1,inactive: 4.28%,
Cc1cc(C)c(C#N)c(SCC(=O)Nc2ccccc2)n1,inactive: 0.609%,

SMILES,growth rescue (activation),Potency
CC(C)(C)NC(=O)NC(=O)CN1C(=O)NC(c2ccccc2)(c2ccccc2)C1=O,inactive: -0.702%,
COC(=O)N/N=C/c1ccc(OC(=O)/C=C/c2ccco2)cc1,inactive: -12.2%,
Cc1ccc(N/C=C(\C#N)c2ccc(OCCCF)cc2)cc1,inactive: 35.4%,
CSc1ccccc1OCc1cc(C(=O)N2CCNC(=O)C2)no1,inactive: 28%,
COc1ccccc1-n1cnnc1SCC(=O)NCC1CCCO1 (stereo not drawn),inactive: -9.45%,
CC(C)(C)c1ccc(OCC(=O)NNC(=O)c2cccnc2)cc1,inactive: -10.9%,
CSc1nc2ccccc2c(=O)n1C1CCCCC1,inactive: 9.02%,
CCCNc1nc(NCC)nc(OC)n1,inactive: -4.99%,
COc1ccc(-n2nc(C(=O)NCC(=O)NCCC3=CCCCC3)c3ccccc3c2=O)cc1OC,inactive: 9.51%,
NS(=O)(=O)c1ccc(NC(=O)COC(=O)c2ccc(S(=O)(=O)N3CCOCC3)cc2)cc1,inactive: -5.74%,
Cc1nc(-c2cccc(S(=O)(=O)N3CCCCC3)c2)cs1,inactive: 4.75%,
O=c1[nH]cc(N(CCO)CCO)c(=O)[nH]1,inactive: 9.95%,
Cn1c(Oc2ccncc2)nc2cc(-c3ccsc3)sc2c1=O,inactive: 0.981%,
COc1cc(/C=C/C(=O)Nc2ccncc2)cc(OC)c1OC,inactive: 3.35%,
COCCC(=O)N1CCCC(C(=O)c2ccc(Oc3ccccc3)cc2)C1 (stereo not drawn),inactive: 33.5%,
Cc1ccc(S(=O)(=O)N2CCCC(C(=O)Nc3ccc(C(=O)O)cc3)C2)cc1Cl (stereo not drawn),inactive: 0.401%,
CCN(CC(=O)Nc1ccc2c(c1)OCO2)S(=O)(=O)c1ccccc1,inactive: 19.3%,
CCc1nn(CC(=O)NCCCN(CC)CC)c(=O)c2cc3sc(C)cc3n12,,inactive
Nc1nc(Nc2cccc(Cl)c2)nc(NCc2ccco2)c1[N+](=O)[O-],inactive: 17.3%,
CCOc1ccc(N(CC(=O)NC2CCCCC2)C(=O)CCC(=O)Nc2nc(C)cs2)cc1,inactive: 10.8%,
